Source: the supplement of paper PMC8728848
The list shows a part of the results.

Tests used:
Assay in all cases: glycan array binding signal (z-score within array); higher = stronger binding
Conditions in all cases: glycan notation: IUPAC condensed, linker removed
[1] = biological target: Gal(b1-2)Gal
Procedure, shortened: (§1)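 Arrays were curated from the Consortium for Functional Glycomics database, 3228 in total, and kept only where the protein sequence was available. Binding is expressed as a within-array Z-score. This score was averaged across arrays of the same protein sequence at different concentrations or buffers and across linkers, and negative values can be read as non-binding.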

[2] = biological target: Gal(b1-3)Gal
Procedure, shortened: as §1

[3] = biological target: Gal(b1-3)Gal(b1-4)GlcNAc
Procedure, shortened: as §1

[4] = biological target: Gal(b1-3)GalNAc
Procedure, shortened: as §1

[5] = biological target: Gal(b1-3)GalNAc(a1-3)[Fuc(a1-2)]Gal(b1-4)Glc
Procedure, shortened: as §1

[6] = biological target: Gal(b1-3)GalNAc(a1-3)[Fuc(a1-2)]Gal(b1-4)GlcNAc
Procedure, shortened: as §1

[7] = biological target: Gal(b1-3)GalNAc(b1-3)Gal
Procedure, shortened: as §1

[8] = biological target: Gal(b1-3)GalNAc(b1-3)Gal(a1-4)Gal(b1-4)Glc
Procedure, shortened: as §1

[9] = biological target: Gal(b1-3)GalNAc(b1-4)Gal(b1-4)Glc
Procedure, shortened: as §1

[10] = biological target: Gal(b1-3)GalNAc(b1-4)[Neu5Ac(a2-3)]Gal(b1-4)Glc
Procedure, shortened: as §1

[11] = biological target: Gal(b1-3)GlcNAc
Procedure, shortened: as §1

[12] = biological target: Gal(b1-3)GlcNAc(a1-3)Gal(b1-4)GlcNAc
Procedure, shortened: as §1

[13] = biological target: Gal(b1-3)GlcNAc(a1-6)Gal(b1-4)GlcNAc
Procedure, shortened: as §1

[14] = biological target: Gal(b1-3)GlcNAc(b1-2)Man
Procedure, shortened: as §1

[15] = biological target: Gal(b1-3)GlcNAc(b1-2)Man(a1-3)[Gal(b1-3)GlcNAc(b1-2)Man(a1-6)]Man(b1-4)GlcNAc(b1-4)GlcNAc
Procedure, shortened: as §1

[16] = biological target: Gal(b1-3)GlcNAc(b1-2)Man(a1-3)[Gal(b1-3)GlcNAc(b1-2)Man(a1-6)]Man(b1-4)GlcNAc(b1-4)[Fuc(a1-6)]GlcNAc
Procedure, shortened: as §1

[17] = biological target: Gal(b1-3)GlcNAc(b1-2)Man(a1-3)[GlcNAc(b1-4)][Gal(b1-3)GlcNAc(b1-2)Man(a1-6)]Man(b1-4)GlcNAc(b1-4)GlcNAc
Procedure, shortened: as §1

[18] = biological target: Gal(b1-3)GlcNAc(b1-2)[Gal(b1-3)GlcNAc(b1-6)]Man(a1-6)[Gal(b1-3)GlcNAc(b1-2)Man(a1-3)]Man(b1-4)GlcNAc(b1-4)GlcNAc
Procedure, shortened: as §1

[19] = biological target: Gal(b1-3)GlcNAc(b1-3)Gal(b1-3)GlcNAc
Procedure, shortened: as §1

[20] = biological target: Gal(b1-3)GlcNAc(b1-3)Gal(b1-4)Glc
Procedure, shortened: as §1

[21] = biological target: Gal(b1-3)GlcNAc(b1-3)Gal(b1-4)GlcNAc
Procedure, shortened: as §1

[22] = biological target: Gal(b1-3)GlcNAc(b1-3)Gal(b1-4)GlcNAc(b1-2)Man(a1-3)[Gal(b1-3)GlcNAc(b1-3)Gal(b1-4)GlcNAc(b1-2)Man(a1-6)]Man(b1-4)GlcNAc(b1-4)GlcNAc
Procedure, shortened: as §1

[23] = biological target: Gal(b1-3)GlcNAc(b1-3)Gal(b1-4)GlcNAc(b1-2)[Gal(b1-3)GlcNAc(b1-3)Gal(b1-4)GlcNAc(b1-6)]Man(a1-6)[Gal(b1-3)GlcNAc(b1-3)Gal(b1-4)GlcNAc(b1-2)Man(a1-3)]Man(b1-4)GlcNAc(b1-4)[Fuc(a1-6)]GlcNAc
Procedure, shortened: as §1

[24] = biological target: Gal(b1-3)GlcNAc(b1-3)Gal(b1-4)GlcNAc(b1-3)Gal(b1-4)GlcNAc(b1-2)[Gal(b1-3)GlcNAc(b1-3)Gal(b1-4)GlcNAc(b1-3)Gal(b1-4)GlcNAc(b1-6)]Man(a1-6)[Gal(b1-3)GlcNAc(b1-3)Gal(b1-4)GlcNAc(b1-3)Gal(b1-4)GlcNAc(b1-2)Man(a1-3)]Man(b1-4)GlcNAc(b1-4)[Fuc(a1-6)]GlcNAc
Procedure, shortened: as §1

[25] = biological target: Gal(b1-3)GlcNAc(b1-3)Gal(b1-4)GlcNAc(b1-6)[Gal(b1-3)GlcNAc(b1-3)]Gal(b1-4)Glc
Procedure, shortened: as §1

[26] = biological target: Gal(b1-3)GlcNAc(b1-3)Gal(b1-4)[Fuc(a1-3)]GlcNAc
Procedure, shortened: as §1

[27] = biological target: Gal(b1-3)GlcNAc(b1-3)Gal(b1-4)[Fuc(a1-3)]GlcNAc(b1-6)[Gal(b1-3)GlcNAc(b1-3)]Gal(b1-4)Glc
Procedure, shortened: as §1

[28] = biological target: Gal(b1-3)GlcNAc(b1-3)GalNAc
Procedure, shortened: as §1

[29] = biological target: Gal(b1-3)GlcNAc(b1-6)Gal(b1-4)GlcNAc
Procedure, shortened: as §1

[30] = biological target: Gal(b1-3)GlcNAc(b1-6)GalNAc
Procedure, shortened: as §1

[31] = biological target: Gal(b1-3)GlcNAc(b1-6)[Gal(b1-3)]GalNAc
Procedure, shortened: as §1

[32] = biological target: Gal(b1-3)GlcNAc6S
Procedure, shortened: as §1

[33] = biological target: Gal(b1-3)[Fuc(a1-4)]GlcNAc
Procedure, shortened: as §1

[34] = biological target: Gal(b1-3)[Fuc(a1-4)]GlcNAc(b1-2)Man
Procedure, shortened: as §1

[35] = biological target: Gal(b1-3)[Fuc(a1-4)]GlcNAc(b1-2)Man(a1-3)[Gal(b1-3)[Fuc(a1-4)]GlcNAc(b1-2)Man(a1-6)]Man(b1-4)GlcNAc(b1-4)[Fuc(a1-6)]GlcNAc
Procedure, shortened: as §1

[36] = biological target: Gal(b1-3)[Fuc(a1-4)]GlcNAc(b1-3)Gal(b1-3)[Fuc(a1-4)]GlcNAc
Procedure, shortened: as §1

[37] = biological target: Gal(b1-3)[Fuc(a1-4)]GlcNAc(b1-3)Gal(b1-4)[Fuc(a1-3)]GlcNAc
Procedure, shortened: as §1

[38] = biological target: Gal(b1-3)[Fuc(a1-4)]GlcNAc(b1-6)GalNAc
Procedure, shortened: as §1

[39] = biological target: Gal(b1-3)[GlcNAc(b1-6)]GalNAc
Procedure, shortened: as §1

[40] = biological target: Gal(b1-3)[Neu5Ac(a2-6)]GalNAc
Procedure, shortened: as §1

[41] = biological target: Gal(b1-3)[Neu5Ac(a2-6)]GlcNAc(b1-4)Gal(b1-4)Glc
Procedure, shortened: as §1

[42] = biological target: Gal(b1-3)[Neu5Ac(b2-6)]GalNAc
Procedure, shortened: as §1

[43] = biological target: Gal(b1-4)Gal
Procedure, shortened: as §1

[44] = biological target: Gal(b1-4)GalNAc(a1-3)[Fuc(a1-2)]Gal(b1-4)GlcNAc
Procedure, shortened: as §1

[45] = biological target: Gal(b1-4)GalNAc(b1-3)[Fuc(a1-2)]Gal(b1-4)GlcNAc
Procedure, shortened: as §1

B1: Als3-2 (Candida albicans) (protein)
chain: KTITGVFNSFNSLTWSNAATYNYKGPGTPTWNAVLGWSLDGTSASPGDTFTLNMPCVFKFTTSQTSVDLTAHGVKYATCQFQAGEEFMTFSTLTCTVSNTLTPSIKALGTVTLPLAFNVGGTGSSVDLEDSKCFTAGTNTVTFNDGGKKISINVDFERSNVDPKGYLTD
Q: How did the “glycan array binding signal (z-score)” value [1] turn out when B1 was run?
A: -0.332

Q: And the “glycan array binding signal (z-score)” value [2]?
A: -0.653

Q: What about the “glycan array binding signal (z-score)” value [3] of the same binder?
A: 1.7

Q: And the “glycan array binding signal (z-score)” value [4]?
A: -0.398

Q: And the “glycan array binding signal (z-score)” value [5]?
A: -0.076

Q: And the “glycan array binding signal (z-score)” value [6]?
A: 0.378

Q: And the “glycan array binding signal (z-score)” value [7]?
A: -0.056

Q: What about the “glycan array binding signal (z-score)” value [8] of the same binder?
A: -0.55

Q: And the “glycan array binding signal (z-score)” value [9]?
A: -0.166

Q: And the “glycan array binding signal (z-score)” value [10]?
A: 0.245

Q: What about the “glycan array binding signal (z-score)” value [11] of the same binder?
A: -0.597

Q: What about the “glycan array binding signal (z-score)” value [12] of the same binder?
A: -0.203

Q: And the “glycan array binding signal (z-score)” value [13]?
A: 1.31

Q: And the “glycan array binding signal (z-score)” value [14]?
A: -0.2

Q: And the “glycan array binding signal (z-score)” value [15]?
A: 1.14

Q: And the “glycan array binding signal (z-score)” value [16]?
A: -0.624

Q: And the “glycan array binding signal (z-score)” value [17]?
A: -0.229

Q: And the “glycan array binding signal (z-score)” value [18]?
A: -0.228

Q: What about the “glycan array binding signal (z-score)” value [19] of the same binder?
A: 0

Q: And the “glycan array binding signal (z-score)” value [20]?
A: -0.704

Q: And the “glycan array binding signal (z-score)” value [21]?
A: 0.185

Q: And the “glycan array binding signal (z-score)” value [22]?
A: 2.3

Q: What about the “glycan array binding signal (z-score)” value [23] of the same binder?
A: 0.446

Q: What about the “glycan array binding signal (z-score)” value [24] of the same binder?
A: 2.57

Q: And the “glycan array binding signal (z-score)” value [25]?
A: -0.603

Q: And the “glycan array binding signal (z-score)” value [26]?
A: -0.641

Q: What about the “glycan array binding signal (z-score)” value [27] of the same binder?
A: -0.615

Q: What about the “glycan array binding signal (z-score)” value [28] of the same binder?
A: -0.587

Q: And the “glycan array binding signal (z-score)” value [29]?
A: -0.517

Q: And the “glycan array binding signal (z-score)” value [30]?
A: -0.468

Q: And the “glycan array binding signal (z-score)” value [31]?
A: -0.733

Q: And the “glycan array binding signal (z-score)” value [32]?
A: -0.565

Q: What about the “glycan array binding signal (z-score)” value [33] of the same binder?
A: -0.504

Q: What about the “glycan array binding signal (z-score)” value [34] of the same binder?
A: -0.005

Q: What about the “glycan array binding signal (z-score)” value [35] of the same binder?
A: -0.583

Q: And the “glycan array binding signal (z-score)” value [36]?
A: -0.17

Q: And the “glycan array binding signal (z-score)” value [37]?
A: -0.461

Q: What about the “glycan array binding signal (z-score)” value [38] of the same binder?
A: -0.288

Q: What about the “glycan array binding signal (z-score)” value [39] of the same binder?
A: -0.513

Q: What about the “glycan array binding signal (z-score)” value [40] of the same binder?
A: -0.477

Q: And the “glycan array binding signal (z-score)” value [41]?
A: -0.325

Q: What about the “glycan array binding signal (z-score)” value [42] of the same binder?
A: -0.556

Q: What about the “glycan array binding signal (z-score)” value [43] of the same binder?
A: -0.552

Q: And the “glycan array binding signal (z-score)” value [44]?
A: -0.61

Q: And the “glycan array binding signal (z-score)” value [45]?
A: -0.72
